# Results: the supplement of paper PMC3334620
# The full ranking holds about 33,000 sequences; the median of “E-score (-0.5 to 0.5)” is about -0.012, and the highest 2% start at about 0.27. The list shows a part of the results.
# Biological target: T1, Vhr1 (UniProt P40522)
# T1 sequence: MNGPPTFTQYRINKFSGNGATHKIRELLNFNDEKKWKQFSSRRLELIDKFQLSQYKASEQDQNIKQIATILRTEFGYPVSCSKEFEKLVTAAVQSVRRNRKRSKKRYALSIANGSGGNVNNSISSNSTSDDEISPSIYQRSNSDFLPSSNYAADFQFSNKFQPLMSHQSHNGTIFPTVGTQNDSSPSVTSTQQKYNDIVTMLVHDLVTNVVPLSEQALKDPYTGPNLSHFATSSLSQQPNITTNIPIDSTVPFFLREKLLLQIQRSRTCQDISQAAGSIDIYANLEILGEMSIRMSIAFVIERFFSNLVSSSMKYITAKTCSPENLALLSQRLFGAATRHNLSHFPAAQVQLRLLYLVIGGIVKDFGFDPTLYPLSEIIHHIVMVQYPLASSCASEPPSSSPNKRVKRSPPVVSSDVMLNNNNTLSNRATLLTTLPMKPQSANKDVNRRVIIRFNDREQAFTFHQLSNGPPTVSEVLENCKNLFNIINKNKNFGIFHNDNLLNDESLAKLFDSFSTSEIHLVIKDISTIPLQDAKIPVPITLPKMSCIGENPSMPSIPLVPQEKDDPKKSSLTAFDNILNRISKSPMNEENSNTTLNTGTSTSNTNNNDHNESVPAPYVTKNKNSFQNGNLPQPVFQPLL
# Experiment: PBM E-score (8-mer binding enrichment) (E-score (-0.5 to 0.5)); higher = stronger / more preferred TF binding; most listed sequences are background and not binding sites
# Conditions: protein concentration: 200 nM; construct: GST-full length
# Description: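 Universal 'all 10-mer' protein binding microarrays (Agilent AMADID 015681) probed with GST-tagged S. cerevisiae TFs (full-length or DBD) made by in vitro transcription/translation (PURExpress), about 100-200 nM. Bound TF was detected with fluorescent anti-GST. Each ungapped 8-mer (which stands for itself and its reverse complement) is scored by the PBM enrichment score (E-score), a modified Wilcoxon-Mann-Whitney statistic from -0.5 to +0.5, computed with the Universal PBM Analysis Suite. Scale: above 0.35 generally sequence-specific binding.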
row,Sequence,PBM E-score
1,AAAGAATC,-0.0736
2,GAATGAGA,-0.0378
3,AGCATGGG,0.0586
4,GAAAAGTA,-0.214
5,AATGTGCA,0.00473
6,TTGCGAAA,-0.0287
7,AAGTTTCC,-0.155
8,AAGCAAGC,-0.0171
9,AGTGAGCG,-0.093
10,GTAAATAC,-0.118
11,GGAGTGCA,0.14
12,CATCCTCG,0.124
13,AGCGTTCC,-0.25
14,GATTAATC,0.161
15,CTATTGAG,0.264
16,CTGGTCCC,-0.123
17,CCAACGAG,-0.0488
18,AACTATTA,0.0476
19,ACTTAATG,0.0392
20,ATATTATG,0.324
21,GTCGCTAA,0.0364
22,ATATGCAA,-0.0627
23,AGGGCTCG,-0.079
24,AAGAAATG,0.0307
25,CCTCACCA,-0.00516

row,Sequence,PBM E-score
1,ACCGAGGG,-0.193
2,AAGTGGTA,-0.0867
3,ATTTTTGA,-0.212
4,CTACTCTA,0.0199
5,CGATTAAA,-0.0467
6,GATCTGAC,0.148
7,ATTTGGTA,0.163
8,CCCGGGTC,0.0813
9,AGCGCGGC,-0.00462
10,CGGGTAAA,0.119
11,ACGCATCT,0.0947
12,GCATGTCC,-0.0226
13,CAGTCGCA,0.0715
14,TGTAGACA,0.109
15,CATGATAA,0.108
16,CGGCTCAG,0.197
17,CTGTTCTA,-0.0435
18,ACGCATAG,0.00357
19,CTCGGAAC,-0.0788
20,ATCGTGTA,0.0348
21,CTGCCACC,-0.0905
22,ACAAGCGC,-0.0276
23,ACCGAATC,-0.0188
24,TTTCGAAA,-0.309
25,AGGTACTG,-0.0757

row,Sequence,PBM E-score
1,GGGACCAC,0.134
2,ATTAGACA,-0.0949
3,ACGGAGAT,-0.0922
4,AGCCGATG,0.0352
5,AAATTAAC,-0.00361
6,CACACCTA,0.14
7,CGGGGCCA,0.0148
8,ACTGGCAT,0.0495
9,CAATTATG,-0.0832
10,ACGCATAT,0.09
11,CCTCGTTC,-0.062
12,TATTACGA,0.0546
13,ATATTGAT,0.155
14,AATCCCAA,-0.21
15,ATCAAACA,0.186
16,ACACTTCT,-0.00042
17,AGGGCGGC,-0.147
18,ATTGATAG,-0.0457
19,CCATATAC,0.145
20,CAGCAGTC,0.0874
21,ATATAACA,0.124
22,CTATGAAA,-0.0617
23,TACAACAA,0.113
24,CGCTGAGA,-0.0877
25,TGCGTACA,0.0334

row,Sequence,PBM E-score
1,ACTGTCCG,0.0325
2,CTGTGGTA,0.0391
3,AACCTTAC,0.0697
4,GCCAGAAA,0.00743
5,GTTCATAA,0.11
6,GTCTGTTA,0.121
7,AATCTACC,-0.0187
8,GACACCTA,0.00679
9,ACAAGAAT,-0.152
10,CAGAGCAG,0.0312
11,ACGGCCCG,0.00779
12,AATTGTAC,0.127
13,CAACATAC,0.06
14,GAGTGCGA,0.0178
15,CTTAAGCC,-0.234
16,ACTTCACA,-0.0867
17,CCCAACGC,-0.044
18,CTGGGAAC,0.157
19,ACTTTGGA,0.0908
20,GGTTTAAC,-0.0583
21,GCATCCAC,0.0832
22,ACTCTCTC,0.0707
23,ATGCGTTG,-0.0731
24,AGTATACA,0.0667
25,ACTGTTTG,0.0135

row,Sequence,PBM E-score
1,GACTTAAA,-0.28
2,GACACAGA,0.0346
3,CAGCCTAA,-0.181
4,AAGGGACT,-0.0238
5,AAGACTAT,0.139
6,AAGATTCA,0.138
7,CCAACTAC,0.111
8,CCGCTCAG,-0.0643
9,CCATCGAG,0.0908
10,TATTAATA,0.17
11,CTCCTCGA,-0.118
12,ACGGACAC,0.0877
13,CAACACGG,0.16
14,CTTCGCGC,0.107
15,CAGGTTCA,0.0551
16,CTGGACTA,-0.0239
17,CCAAGGAG,-0.147
18,CGTGTGAA,-0.00085
19,GCGATCTA,0.00878
20,ATCGAGAC,0.0749
21,AGCCATAT,0.0836
22,ATCGTGCA,0.0684
23,AATGGTTA,0.118
24,CCACGCCG,-0.0762
25,ACGTACTC,0.138

row,Sequence,PBM E-score
1,CCCTATAA,-0.115
2,TCCATAAA,-0.0842
3,CGATCCTC,-0.0732
4,CTCTGGTC,-0.0103
5,AAGGCAGA,-0.122
6,GTCTCCAC,0.117
7,GATCCAGA,0.0935
8,CAGCGATA,-0.0998
9,AGATAATC,-0.196
10,CTGGTTCA,-0.0177
11,AAGCCCTT,-0.268
12,CATACCCA,0.271
13,AGGGGACG,-0.163
14,GCCGTGGA,-0.198
15,CGACACTA,0.201
16,AGAACAAC,-0.114
17,CATTTATA,0.0707
18,ACTCTTAC,0.163
19,AAGTGTAG,0.0716
20,CGGTCCGA,0.0103
21,TAGAAAGA,-0.134
22,AATAGGAG,-0.179
23,GACGCAGC,-0.175
24,AATTGAAG,-0.235
25,AGAAGCGC,0.16

row,Sequence,PBM E-score
1,ACTAGGAG,0.101
2,AATAAGTA,-0.0992
3,AGATTTGA,0.0476
4,GCGCCCTA,-0.126
5,ATCTTTCA,-0.0137
6,AGTCTTGC,0.0289
7,GGGGTTCA,-0.0551
8,AGTCCAAC,-0.148
9,GTGTACGA,0.179
10,ACAAGCAC,-0.0697
11,AAAAAGTG,-0.112
12,CCGGTCGC,-0.0251
13,GCCCAGAC,-0.15
14,CCTGAAAA,-0.276
15,ATAGTGAT,0.145
16,CACAAACA,-0.0304
17,CTACATTA,-0.0643
18,AGAACACC,-0.119
19,CCATTAGA,-0.0764
20,ATCTAATG,-0.157
21,ACACAAGA,0.0208
22,GAGATTCC,0.155
23,AATCTTCC,-0.0898
24,ATGTTAGG,-0.0862
25,AGAAGTCT,-0.247

row,Sequence,PBM E-score
1,CCCGTTCC,0.0146
2,AAACTTAA,-0.0817
3,AGTTAGGG,-0.127
4,ATTACGAC,-0.00849
5,GAGTCCCA,0.249
6,AGGGTTGA,0.12
7,AAATCCTT,-0.265
8,CACCGGTC,-0.149
9,CAGTAGGA,-0.0712
10,TACCGGCA,0.0165
11,ATAACAGA,0.0646
12,ACCGACTG,0.177
13,AACAAAAC,-0.0325
14,CACACGCG,0.21
15,CCGGACGA,0.128
16,CCTTCAGA,-0.187
17,AGACCGGG,0.0202
18,CCCGGGCA,0.215
19,CTCGAATC,-0.0369
20,AGCGCTAG,-0.148
21,CTACCTCA,-0.00038
22,CATGTCCG,-0.284
23,ACGCAAGG,-0.037
24,AACAGGTT,-0.0643
25,AGTTCATG,0.195

row,Sequence,PBM E-score
1,CAATCAGC,0.193
2,ATGACGTC,0.00796
3,AATTGATG,0.147
4,CCCAGCGC,0.0578
5,AATTGCAA,-0.176
6,CATGCGCC,0.00622
7,AGACATGG,0.192
8,GTTTGTGA,-0.0971
9,AGACGTGA,0.112
10,CGTCATGC,0.0219
11,ATCAATGG,-0.00322
12,CCGATAGG,0.0123
13,AACTGAGC,-0.115
14,AAGGTCTC,-0.244
15,AACCCCTG,-0.104
16,TTCGCAAA,0.0604
17,GCAACGAA,-0.0344
18,ATCTAAAC,-0.19
19,AGTTGATC,0.0148
